The test system of assay [1] is HSkMC (human skeletal muscle cells). Put plainly: cytotoxicity call (relative viability < 0.9). The conditions noted are these: 10 µM.
The test system of assay [2] is HepG2. Put plainly: cytotoxicity call (relative viability < 0.9). The settings on record: 10 µM.
For assay [3], the system named is S. aureus RN4220. Put plainly: growth inhibition call (relative growth <= 0.2). The conditions noted are these: 50 µM.

The other results are listed elsewhere or left out.

In the case of `C[C@@H]1CN([C@H](C)CO)C(=O)Cc2cc(NC(=O)CCCCCC(=O)Nc3ccccc3N)ccc2O[C@@H]1CN(C)Cc1ccc(Cl)c(Cl)c1`, the cytotoxicity call in assay [1] was “inactive”. The cytotoxicity call in assay [2] is “active”. In addition, the growth inhibition call in assay [3] is “inactive”.

Turning to `O=C(O)c1cnn2c1CCCC2`, the cytotoxicity call in assay [1] and in assay [2] was “inactive” each time. In assay [3], the growth inhibition call was “inactive”.

Take `COc1ccc(S(=O)(=O)Nc2ccc3c(c2)CC(=O)N([C@@H](C)CO)C[C@H](C)[C@@H](CN(C)S(=O)(=O)c2ccc(C)cc2)O3)cc1`: the cytotoxicity call in assay [1] and in assay [2] was “inactive” throughout. Also, the growth inhibition call in assay [3] is “inactive”.

Turning to `CC(C)NC(=O)N(C)C[C@H]1Oc2ccc(NC(=O)Cn3cnnn3)cc2CC(=O)N([C@H](C)CO)C[C@@H]1C`, the cytotoxicity call in assay [1] and in assay [2] was “inactive” throughout. The growth inhibition call in assay [3] is “inactive”.

With `C=C(C)COc1ccc([N+](=O)[O-])cc1`, the cytotoxicity call in assay [1] and in assay [2] was “inactive” each time. Moreover, the growth inhibition call in assay [3] was “inactive”.

Take `C[C@@H]1CN([C@@H](C)CO)C(=O)c2cc(NC(=O)Nc3ccc(F)cc3)ccc2O[C@@H](C)CCCCO[C@H]1CN(C)Cc1ccc2c(c1)OCO2`: the cytotoxicity call in assay [1] was “inactive”. Besides, the cytotoxicity call in assay [2] is “active”. For the same compound, the growth inhibition call in assay [3] is “inactive”.

In the case of `COc1ccc(S(=O)(=O)Nc2ccc3c(c2)C(=O)N([C@@H](C)CO)C[C@H](C)[C@@H](CN(C)S(=O)(=O)c2ccc(Cl)cc2)OCCCC[C@H](C)O3)cc1`, in assay [1], the cytotoxicity call was “inactive”. For the same compound, the cytotoxicity call in assay [2] is “active”. The growth inhibition call in assay [3] was “inactive”.

Consider `COc1ccc(S(=O)(=O)Nc2ccc3c(c2)C(=O)N([C@@H](C)CO)C[C@@H](C)[C@H](CN(C)S(=O)(=O)c2ccc(Cl)cc2)OCCCC[C@H](C)O3)cc1`, for which the cytotoxicity call in assay [1] and in assay [2] was “inactive” in each case. Moreover, the growth inhibition call in assay [3] is “inactive”.

In the case of `COCCNC(=O)C[C@@H]1C[C@H]2c3cc(NC(=O)Nc4ccc(C(F)(F)F)cc4)ccc3O[C@H]2[C@@H](CO)O1`, the cytotoxicity call in assay [1] and in assay [2] was “inactive” in each case. Besides, in assay [3], the growth inhibition call was “inactive”.

`COc1ccc(S(=O)(=O)Nc2ccc3c(c2)C(=O)N([C@@H](C)CO)C[C@@H](C)[C@@H](CN(C)Cc2ccccc2)OCCCC[C@@H](C)O3)cc1`: the cytotoxicity call in assay [1] and in assay [2] was “inactive” in each case. Further, in assay [3], the growth inhibition call is “inactive”.

In the case of `COc1ccc(CN(C)C[C@H]2OCCCC[C@@H](C)Oc3ccc(NC(=O)Nc4ccc(OC)cc4)cc3C(=O)N([C@@H](C)CO)C[C@H]2C)cc1`, the cytotoxicity call in assay [1] is “inactive”. Also, the cytotoxicity call in assay [2] is “active”. For the same compound, the growth inhibition call in assay [3] was “inactive”.

As for `C[C@H](CO)N1C[C@H](C)[C@@H](CN(C)C(=O)c2ccccn2)Oc2cc(Br)ccc2S1(=O)=O`, the cytotoxicity call in assay [1] and in assay [2] was “inactive” in each case. Moreover, in assay [3], the growth inhibition call is “inactive”.

As to `O=C(C[C@@H]1CC[C@@H](NC(=O)CN2CCOCC2)[C@H](CO)O1)NCCc1ccccc1`, the cytotoxicity call in assay [1] and in assay [2] was “inactive” in each case. The growth inhibition call in assay [3] was “inactive”.

In the case of `NC(=O)N1C(=O)[C@H]2[C@H](C1=O)[C@H]1C=C(CCCO)[C@@H]2[C@@H](C2CC2)N1Cc1cc2c(cc1Br)OCO2`, the cytotoxicity call in assay [1] and in assay [2] was “inactive” throughout. In assay [3], the growth inhibition call is “inactive”.

Take `CCNC(=O)C[C@H]1CC[C@H](NC(=O)C2CCOCC2)[C@H](CO)O1`: the cytotoxicity call in assay [1] and in assay [2] was “inactive” in each case. The growth inhibition call in assay [3] was “inactive”.

Take `Cc1occc1C(=O)NNC(=O)C1CC1`: the cytotoxicity call in assay [1] and in assay [2] was “inactive” in each case. Besides, the growth inhibition call in assay [3] is “inactive”.

Regarding `C[C@H](CO)N1C[C@H](C)[C@@H](CN(C)S(=O)(=O)c2ccccc2)Oc2c(NC(=O)Nc3cccc4ccccc34)cccc2C1=O`, the cytotoxicity call in assay [1] and in assay [2] was “inactive” each time. In addition, the growth inhibition call in assay [3] was “inactive”.

`C[C@H]1CCCCO[C@@H](CN(C)C(=O)Nc2ccc(C(F)(F)F)cc2)[C@@H](C)CN([C@@H](C)CO)C(=O)c2cc(NC(=O)c3ccncc3)ccc2O1`: the cytotoxicity call in assay [1] and in assay [2] was “inactive” in each case. Also, the growth inhibition call in assay [3] is “inactive”.

For `COc1ccc(S(=O)(=O)N(C)C[C@H]2OCCCC[C@@H](C)Oc3ccc(NS(C)(=O)=O)cc3C(=O)N([C@@H](C)CO)C[C@H]2C)cc1`, the cytotoxicity call in assay [1] and in assay [2] was “inactive” throughout. For the same compound, in assay [3], the growth inhibition call was “inactive”.

For the compound `Cc1ccc(S(=O)(=O)N(C)C[C@H]2Oc3ccc(NS(=O)(=O)c4ccc(F)cc4)cc3C(=O)N([C@@H](C)CO)C[C@H]2C)cc1`, the cytotoxicity call in assay [1] and in assay [2] was “inactive” throughout. The growth inhibition call in assay [3] was “inactive”.

Consider `CC(C)NC(=O)N(C)C[C@H]1OCCCC[C@@H](C)Oc2ccc(NS(C)(=O)=O)cc2C(=O)N([C@@H](C)CO)C[C@H]1C`, for which the cytotoxicity call in assay [1] and in assay [2] was “inactive” in each case. Also, the growth inhibition call in assay [3] was “inactive”.

For the compound `C[C@@H]1O[C@H](Oc2cc(O)c3c(=O)c(O[C@H]4O[C@H](CO)[C@H](O)[C@H](O)[C@@H]4O[C@@H]4O[C@H](C)[C@@H](O)[C@H](O)[C@@H]4O)c(-c4ccc(O)c(O)c4)oc3c2)[C@@H](O)[C@H](O)[C@@H]1O`, the cytotoxicity call in assay [1] and in assay [2] was “inactive” each time. Moreover, the growth inhibition call in assay [3] is “inactive”.

With `C[C@@H]1CCCCO[C@H](CN(C)Cc2ccc3c(c2)OCO3)[C@H](C)CN([C@@H](C)CO)C(=O)c2cc(NC(=O)Nc3cccc4ccccc34)ccc2O1`, the cytotoxicity call in assay [1] and in assay [2] was “active” throughout. Also, the growth inhibition call in assay [3] was “inactive”.

As for `C[C@@H]1CN([C@H](C)CO)C(=O)c2cccc(NC(=O)C3CC3)c2O[C@@H]1CN(C)S(=O)(=O)c1ccc(Cl)cc1`, the cytotoxicity call in assay [1] and in assay [2] was “inactive” in each case. Moreover, in assay [3], the growth inhibition call is “inactive”.

With `Cc1noc(C)c1NC(=O)N(C)C[C@@H]1OCCCC[C@H](C)Oc2ccc(NC(=O)Nc3ccc4c(c3)OCO4)cc2C(=O)N([C@H](C)CO)C[C@@H]1C`, the cytotoxicity call in assay [1] and in assay [2] was “inactive” throughout. Moreover, the growth inhibition call in assay [3] was “inactive”.

As to `C[C@@H]1CCCCO[C@H](CN(C)Cc2ccc(C(F)(F)F)cc2)[C@@H](C)CN([C@@H](C)CO)C(=O)c2cc(NC(=O)CCC(F)(F)F)ccc2O1`, the cytotoxicity call in assay [1] and in assay [2] was “inactive” each time. Besides, in assay [3], the growth inhibition call is “inactive”.

Source of the values: the antibiotic and cytotoxicity screens of Wong et al. (2023).
